Measured values published in US6051689, “Receptor for the glucagon-like-peptide (GLP-1)” (Novo Nordisk A/S, dated 2000).

Molecular target: T1, rat GLP-1 receptor (rat)
T1 chain: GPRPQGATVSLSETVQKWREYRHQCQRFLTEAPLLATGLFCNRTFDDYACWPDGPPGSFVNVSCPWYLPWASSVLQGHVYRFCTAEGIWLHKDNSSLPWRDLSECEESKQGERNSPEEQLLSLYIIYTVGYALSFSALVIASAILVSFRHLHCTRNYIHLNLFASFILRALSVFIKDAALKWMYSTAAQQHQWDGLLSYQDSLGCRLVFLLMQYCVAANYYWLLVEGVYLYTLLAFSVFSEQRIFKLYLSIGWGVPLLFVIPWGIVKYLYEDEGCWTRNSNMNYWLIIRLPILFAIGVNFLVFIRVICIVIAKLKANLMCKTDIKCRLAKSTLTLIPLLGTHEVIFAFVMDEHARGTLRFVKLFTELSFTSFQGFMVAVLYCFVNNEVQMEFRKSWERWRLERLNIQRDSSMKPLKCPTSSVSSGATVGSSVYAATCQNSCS
Assay: displacement of 20 pM 125I-GLP-1 from COS cells transfected with the rat GLP-1 receptor cDNA

B1: glucagon (ligand)
peptide: not shown
- IC50: 1 µM
